Data as given in the supplement of paper PMC10338343.
± gives the standard deviation. Only a part is listed here, and it is no random draw.

test system: MIWI (PIWIL1) piRISC loaded with L1MC piRNA (30 nt); experiment: pre-steady-state target cleavage rate (min^-1); MIWI and MILI are mouse PIWI proteins and EfPiwi is from a freshwater sponge; tags in brackets are library labels; higher = faster piRNA-guided slicing of the target; conditions: guide: L1MC piRNA 5'p-UAACUAAAUACUAUGCAAGCUGUAGGUCCU; auxiliary factor: none (no GTSF1)
How it was run: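 Three pooled Cleave-'n-Seq trials supplied the data, with k3 capped at 0.0001 min^-1. In each, […] transcribed, DNA-blocked target RNA library and 1 nM active affinity-purified piRISC with one synthetic guide reacted in HEPES–potassium acetate buffer at 33 °C for 0–8 or 0–960 min, with or without 500 nM GTSF1 partner protein. Uncleaved targets were sequenced and normalised to depth and to weakly complementary targets. A burst-and-steady-state fit provided the pre-steady-state cleavage rate.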
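Note: 1 nM active piRISC with 0.1 nM target library at 33 °C single turnover.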

Row | Sequence | pre-steady-state target cleavage rate
1 | AGGUCCUACAGCUUGCAUAGUAUAUAGUUA | 0.0347 ± 0.0077
2 | UCGACCUACAGCUUGCAUAGUAUUUAGGUUA | 0.0192 ± 0.0042
3 | UCCUGCUACAGCUUGCAUAGUAUUUCAGUUA | 0.01 ± 0.0034
4 | UCCUGGUACAGCUUGCAUAGUAUAUUGUUA | 0.0215 ± 0.0062
5 | UCGACCUAUCAGCUUGCAUAGUAUUUAGUUA | 0.0851 ± 0.018
6 | UCGAGCUACAGCUUGCAUACUAUUUAGUUA | 0.0331 ± 0.0074
7 | AGGUCCUACAGCUUGCAUAGUAUUUAGUAA | 0.0647 ± 0.012
8 | UGGUCCUACAGCUUGCAUAGUAUAUAGUUA | 0.0318 ± 0.005
9 | UCGAGCUACAGCUUGCAUAGUAUUUAGUUA | 0.0832 ± 0.014
10 | UGGACCUACAGCUUGGAUAGUAAUUAGUUA | 0.0223 ± 0.0058
11 | AGGACCUACACCUUGCAUAGUAAUUAGUUA | 0.0261 ± 0.0063
12 | UCCUCCUACAGCUUGCAUAGUAUAUAGUAA | 0.00732 ± 0.0018
13 | UCCUGGAUGAGCUUGCAUUGUUUUUAGUUA | 0.00347 ± 0.0022
14 | UCGACCUACAGCUUGCAUAGUAUUUUGUUA | 0.0471 ± 0.0091
15 | UCCUGGUACAGCUUGCAUAGUAAUUUAGUUA | 0.0077 ± 0.0026
16 | UCCUGCUACAGCUUGCAUAGUAUUGAGUUA | 0.0253 ± 0.0049
17 | UCCUGGUACAGCUGCAUAGUAUUUAGUUA | 0.00774 ± 0.0038
18 | UGGACCUACAGCUUGCAUAUAUUUAGUUA | 0.00298 ± 0.0022
19 | UCCUGGAACAGCUUGCAUAGUACUUAGUUA | 0.0535 ± 0.01
20 | AGGACCUACAGCUUGCAAUGUAUUUAGUAA | 0.00409 ± 0.0026

Row | Sequence | pre-steady-state target cleavage rate
21 | UCGACGUACAGCUUGCAUAGUAUUUACUUA | 0.0278 ± 0.0047
22 | UCCUGGAACAGCUUGCUUAGUAUUUUGUUA | 0.0329 ± 0.0085
23 | UCCUGCUACAGCUUGCAUAGAAUUUAGAUA | 0.00514 ± 0.0022
24 | AGGACCUACAGCUUGCAUAGUAUGUAGUUA | 0.0176 ± 0.0064
25 | UCCACCUAGUGCUUGCAUAGUAUUUAGUAA | 0.006 ± 0.0015
26 | UCCACCUACAGCUUGCAUAGUUAAUAGUUA | 0.00561 ± 0.0018
27 | UCCUCCUACAGGUUGCAUAGUAUUUACUUA | 0.0141 ± 0.0024
28 | UCCACGUACAGCUUGCAUAGUAUUUAGUAA | 0.0319 ± 0.0057
29 | AGCACCUACAGCUUGCAUACUAUUUAGUUA | 0.00711 ± 0.0024
30 | UCCUGGAUGAGCAUGCAUUGUAUUUAGUUA | 0.00614 ± 0.0027
31 | UCCUGGAUCAGCUUGCAUAGUAAUUUAGUUA | 0.00721 ± 0.0016
32 | AGGACCAUCAGCUUGCAUAGUAUUUACAAA | 0.00807 ± 0.0029
33 | UCCUGGAACAGCUUGCAUAGUAUUUUGUUA | 0.0384 ± 0.0073
34 | UCCACCUACAGCUUGCUUAGUUUUUAGUUA | 0.0103 ± 0.002
35 | UGCACCUACAGCUUGCUUAGUAUUUAGUUA | 0.031 ± 0.0064
36 | UCCUGGAACUGCUUGCAUAGUAUUAAGUUA | 0.0114 ± 0.0043
37 | UCCUGGAUGUCGAACGUAUGUUAAUAGUUA | < 0.0001
38 | UCCUGCUAGUCCUUGCAUAGUAUUUAGUAA | 0.00502 ± 0.0015
39 | UCCACCAACAGCUUGGAUAGUAUUUAGUUA | 0.0553 ± 0.01
